# Reference: article PMC12040169 (PLOS Biology, 2025)
# Some of the results follow.
# Tested on: T1, C. trachomatis L2/434/Bu expressing GFP (CTL2-GFP)
# T1 construct: L2/434/Bu GFP intracellular growth in HeLa cells
# Set-up: species or system HeLa; C. trachomatis total inclusion area by high-content imaging, normalised to DMSO
# Conditions: total inclusion area; 28.5 h, 10 µM; inhibitor
# Method in brief: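 Imaging read-out: GFP inclusions and Hoechst nuclei captured by high-content imaging after fixation. Inclusion area/number = chlamydial growth; nuclei count = host cell viability. MIC calculated per earlier method.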
row,Compound,% of control remaining
1,CN(C(=O)Cn1cccc(C(=O)NCC(C)(C)c2ccc(F)cc2)c1=O)C1CCCCC1 [CBK286112],107.553
2,Cc1cccc(C)c1NC(=O)C(=O)NCCCN1CCOCC1 [CBK264850],121.301
3,Nc1nc(O)c2c(n1)NC1(CCC1)[C@@H]1C[C@@H](O)[C@@H](O)[C@H]21 [CBK303248],84.562
4,CC(C)Nc1cc(SCCN(C)C)ncn1 [CBK105616],96.6716
5,O=C(N[C@@H](Cn1cc(Cl)c(=O)[nH]c1=O)C(=O)O)C1CC1 [CBK289649],99.6305
6,Cc1ccc(NC(=O)/C=C/C(=O)O)c(NC(=O)c2ccccc2)c1 [CBK286563],111.413
7,CNC(=O)C1(Cc2ccccc2-c2cccc(F)c2)CCN(C(=O)Cc2ccccc2)CC1 [CBK285692],108.994
8,CCCC(=O)NCC1Cc2cc(F)cc(-c3ccc(C(C)=O)s3)c2O1 (stereo not shown) [CBK306945],91.636
9,Fc1ccccc1CN(CCCn1ccnc1)CC1CCOC1 (stereo not shown) [CBK283031],96.1643
10,CC(=O)C(Sc1ccc2nnc(-c3ccc(C)cc3)n2n1)C(C)=O [CBK287525],97.5991
11,Cn1ccnc1SCC(=O)Nc1ccc(S(N)(=O)=O)cc1 [CBK263190],95.8447
12,O=C(CN1C(=O)N2CCCN=C2c2ccc(Cl)cc21)N1CCCC1 [CBK284387],88.2841
13,Cn1cc(C2CCCN2C(=O)Cc2csc3ccccc23)cn1 (stereo not shown) [CBK305066],65.8651
14,Cc1noc(C)c1NC(=O)c1ccccn1 [CBK200299],81.1901
15,CS(=O)(=O)c1ncc(Cl)c(C(=O)N(Cc2ccccc2)c2ccccn2)n1 [CBK269489],24.6989
16,COc1ccc2c(c1)c1nc(C)sc1n2CCN1CCCCC1 [CBK269909C],73.8225
17,CCc1ccc(OC)c(S(=O)(=O)N2CCOCC2)c1 [CBK268214],88.4605
18,Cc1nnc2sc(-c3ccc(CNC(=S)NC(=O)c4ccccc4[N+](=O)[O-])cc3)nn12 [CBK268588],103.078
19,CCC(CC)C(=O)N1CCC(c2nnc3n2CCCCC3)CC1 [CBK284614],99.5112
20,COc1ccc(-c2nn(-c3ccccc3)cc2/C=C2\SC(N3CC(C)OC(C)C3)=NC2=O)cc1F (stereo not shown) [CBK265613],99.4319
21,O=C(NC(=S)Nc1ccc(-c2ccc(CO)o2)cc1)c1ccc2c(c1)OCCO2 [CBK269038],89.0271
22,C/C(=C(/C(=O)N(N)c1nc2ccccc2s1)C(=O)C(F)(F)F)N1CCC(C(N)=O)CC1 [CBK265758],92.716
